# Measurements published in ChEMBL document CHEMBL4888484, “Replenishing the malaria drug discovery pipeline: Screening and hit evaluation of the MMV Hit Generation Library 1 (HGL1) against asexual blood stage Plasmodium falciparum ,using a nano luciferase reporter read-out” (2022).
# Screen size: about 150,000 compounds; about 540 (0.36%) showed an effect of 50% or more. The list shows a part of the results.
# Tested on: Plasmodium falciparum
# Assay: Primary screen in NF54 nanoGlo assay, in single point, at 2uM, 72h; a lower Z score goes with more inhibition
# Type: functional, Erythrocyte
# Details: timepoint 72 hour
SMILES,% Inhibition [%],Z score
COc1ccccc1CN1C(=O)Cn2cccc2[C@@H]1C(=O)NC1CCCCC1,20,-2.68
COc1cc(NC(=O)c2sc(C)nc2C)c(OC)cc1NC(=O)c1ccccc1,-4,0.73
COCCN(Cc1cccs1)S(=O)(=O)c1cc2c(cc1C)NC(=O)CO2,-7,0.9
CCc1nc(C)sc1-c1nc(C)n[nH]1,0,-0.03
c1ccc2c(CCNc3ncncn3)c[nH]c2c1,-20,1.95
CCOC(=O)c1c(C)c(C(=O)Nc2ccc(Oc3ccccc3)cc2)c(C)n1CC,3,-0.42
COCCn1ccc(C(=O)N2CCO[C@H](c3cccc(F)c3)[C@H]2C)n1,5,-1.15
CN1CCn2c1nc(N1CCOCC1)nc2=O,-11,1.24
O=C1C[C@H](c2nc(-c3ccccc3)no2)C2(CCCC2)O1,-8,1.59
CCN(CC)C(=O)Cn1cc(C(=O)N(CCOC)C(C)C)nn1,0,0.01
CCN(CC)c1onc(-c2ccccc2)c1CN(CCC(C)C)C(=O)COC,-6,0.6
NS(=O)(=O)[C@H]1CCN(Cc2ccccc2)C1,-18,1.61
c1csc(N[C@H]2CCO[C@@H]2c2cnn(CC3CC3)c2)n1,-1,0.12
COc1ccccc1NC(=O)C1OC2OC3(CCCCC3)OC2C2OC3(CCCCC3)OC12 (stereo not given),3,-0.44
CCN(C)S(=O)(=O)c1cncc(F)c1,-8,1.01
NC(=O)c1cc(N)ccc1C(F)(F)F,-3,0.55
CCN(CC)c1ccc(CN(CCN(C)C)C(=O)CCc2ccccc2)c(OS(=O)(=O)CC)c1,-2,0.3
CS(=O)(=O)CC1(CN2CCC=Cc3ccccc32)CC1,-15,1.82
Cc1nc(Cc2csc(-c3ccccc3)n2)n(CCCO)n1,-16,2.86
Cc1cnc(Cn2ccnc2-c2cnc(N(C)C)s2)cn1,-13,1.76
Cc1nc([C@H]2CCCN(CCc3ccccc3C(=O)O)C2)sc1C,-7,1.01
CCc1nnc(-c2ccc(=O)n(CC(=O)Nc3cccc(C)c3)c2)o1,3,-0.47

SMILES,% Inhibition [%],Z score
Cc1ccc(C)c(S(=O)(=O)Cc2ccncc2)c1,-12,1.52
COc1cccc(C(=O)NC2CN(C(=O)OC(C)(C)C)CC2OC)c1 (stereo not given),26,-2.89
Cc1cc(CNC(=O)c2ccccc2[C@H]2CCNC2)ccc1F,-5,0.97
CC(C)(C)c1ccc(C2(NC(=O)c3cn(C[C@H]4CCOC4)nn3)CCCC2)cc1,-6,1.13
COc1ccc(NC(=O)N2CCC3(CC2)CN(C)C[C@@H]3c2nnc(C(C)C)o2)c(OC)c1,5,-0.83
O=C(Nc1[nH]c(=O)ncc1F)c1coc(-c2ccccc2)n1,80,-14.59
COC(=O)c1ccc(F)c(NCc2ccc(N(C)C)c(F)c2)c1,-13,1.37
O=C(COc1ccc(Cl)cc1)N1C2CCC1CC(n1cncn1)C2 (stereo not given),-8,0.91
Cc1ncc2c(c1-c1noc(-c3scc4c3CCCC4)n1)CCNC2,-3,0.55
Cc1cn2c(CNC[C@@]3(c4cnn(C)c4)CCCO3)c(C)nc2s1,-5,0.86
Fc1ccc(-c2cn(C[C@H]3CCCN(Cc4ncc[nH]4)C3)nn2)cc1,-14,1.97
COc1cccc(NC(=O)c2nnc(N3CCC(C)CC3)c3ccccc23)c1,-6,0.7
O=c1c2ccccc2ncn1C1CCN(S(=O)(=O)c2ccc(Cl)cc2)CC1,-9,1
CCc1nc(NCc2ccccc2F)c2onc(-c3ccc(C)cc3)c2n1,-8,1.12
O=C(NCc1cccnn1)N1CCC[C@]2(CC=CCC2)C1,-3,0.32
Cc1ccc(C(=O)[C@H](C#N)c2nnnn2-c2ccc(C)cc2)cc1,-12,1.35
O=C1CC(C2CCCCN2c2ncnc3c2oc2ccccc23)CN1 (stereo not given),2,-0.28
O=C(c1ccccc1)N1CCN(Cc2csc(C3CCCCC3)n2)CC1,-12,1.53
Cc1c(C(=O)NCCc2ccccn2)cnn1[C@H]1CCS(=O)(=O)C1,16,-2.07
O=C(Nc1ccccc1)N1CCN(C2CC2)C[C@@H]1Cc1ccccc1,-15,2.28
COc1ccc(-c2c3c([nH]c(=O)c2C#N)CCCC3)c(OC)c1,-11,1.48
CC(=O)N1CCc2cc(CNC(=O)c3ccnn3C)ccc21,0,-0.04

SMILES,% Inhibition [%],Z score
O=C(NCc1ccccc1)[C@H]1CC(=O)N(CCN2CCOCC2)C1,3,-0.38
O=S(=O)(c1cccc(Br)c1)N1CCc2[nH]cnc2C1,-6,0.73
C=CCN=C(NCCS(=O)(=O)CC)NCc1ccc(Cl)cc1,-15,2.08
O=C(CN1CCCCCC1)N[C@H]1CCC[C@@H](CO)C1,-14,1.87
CN(C)Cc1cc(NC(=O)N[C@@]2(C)CCOc3ccccc32)ccn1,-2,0.26
COC(CS(=O)(=O)Nc1cnc2[nH]ccc2c1)C1CCOC1 (stereo not given),2,-0.26
O=S(=O)(c1ccc(NCCc2ccccn2)cc1)N1CCOCC1,-10,1.72
Cn1c(C(C)(C)C)nc2cc(NC3CCC4(CC3)OCCO4)ccc21,38,-4.93
O=C(Nc1ccc(-c2nnc3n2CCCCCC3)cc1)c1ccco1,-15,3.12
C[C@H]1CCCCN1CCNC(=O)C1CCN(S(=O)(=O)c2cc(Cl)ccc2Cl)CC1,29,-2.94
Clc1cccc(-c2ccc(CN3CCN([C@H]4CCNC4)CC3)o2)c1,-17,1.55
CC(C)N(C(C)C)S(=O)(=O)c1ccc(N2CCCN(C)CC2)nc1,-2,0.25
CCCc1nc(-c2cc3cc(C)ccc3nc2NC2CCCC2)no1,-14,2.35
CC(C)(C)c1n[nH]c(O)c1Br,9,-1.42
COc1cccc(OCc2cn(CC(=O)NC3CCN(C(C)C)CC3)nn2)c1,-2,0.41
COc1cccc(CNC(=O)CCC(=O)c2ccc3c(c2)OCCO3)c1,-8,0.85
Cc1cccc(S(=O)(=O)N2CCO[C@@H](CN3CCOCC3)C2)c1,-5,0.84
Cc1noc(C)c1CNCc1ccc2c(c1)OCO2,-15,2.13
Cc1ccc2[nH]c(CCc3nc([C@H]4CCOC4)no3)nc2c1C,-9,1.51
CCOc1cc2c(cc1COC(=O)C1CCN(S(=O)(=O)c3ccc(C)cc3)CC1)O[C@@H](C)C2,1,-0.12
COc1ccccc1N1CCN(C(=O)c2nc3cc(C)c(C)cc3nc2OC)CC1,-6,1.17
CC(=O)N(CC(F)(F)F)[C@H]1CCCOC1,1,-0.1

SMILES,% Inhibition [%],Z score
COc1ccc(-c2cn(CC(=O)NC3CCCCCC3)nn2)cn1,-5,1.09
CN(Cc1ccccc1)C(=O)Cn1c(Cc2c(Cl)cccc2Cl)nc2ccccc21,-1,0.11
Cc1nnnn1Cc1nnc(-c2ccccc2)o1,-2,0.29
C[C@H](NC(=O)C(C)(C)NC(=O)Nc1ccccc1)c1ccccn1,-7,0.88
Cn1ncnc1C1(O)CCN(c2nc(C(F)(F)F)cs2)CC1,-11,1.13
Cc1ccc2c(c1)C(c1ccccc1)=NNC(c1ccc(Cl)cc1)=N2,-5,0.58
Cc1cc(C)c(CNC(=O)[C@@H]2COCCO2)c(=O)[nH]1,6,-0.98
CC[C@H](C)CC(=O)N1CCCN(C2=NS(=O)(=O)C(c3ccc(C(C)C)cc3)=C2C)CC1,-14,2.2
CC(C)(C)c1ccc(C(=O)N[C@H]2CC(=O)N(C3CC3)C2)cc1,9,-1.17
Cc1ccc2c(c1)n(Cc1cccc(Cl)c1)c(=O)c1nc(C(=O)Nc3ccc(C(C)C)cc3)nn12,2,-0.36
Cc1cc(C(=O)N2CC[C@H](n3c(C)nc4ccccc43)C2)c(C)o1,-2,0.28
COC(=O)c1ccc(CN=C(N)Nc2ccc(OC)nc2)cc1,3,-0.51
COCC(=O)N[C@H]1CO[C@H]2[C@@H]1OC[C@@H]2n1nnnc1Oc1cccc(N(C)C)c1,30,-3.49
C=CCN(Cc1coc(-c2ccccc2)n1)S(=O)(=O)c1ccc(Cl)cc1,-5,0.89
CO[C@@]1(C)CCCN(C(=O)CCc2ccccc2C(=O)O)CC1,-2,0.23
CCc1ccc(-c2nc([C@H]3CCOC3)no2)cc1S(C)(=O)=O,-9,1.48
Cc1cc(N2CCN(C)CC2)n2nc(-c3ccccc3)c(C)c2n1,-16,3.14
COc1ccc(NC(=O)Cn2c(=O)c(N3CCCC3)nc3ccccc32)cc1,2,-0.28
FCCN1CCC(Cc2nc3ccccc3[nH]2)CC1,19,-2.17
